The source of these data is the supplement of paper PMC12230231.

± gives the standard deviation of the averaged measurements. Restriction of a single-cycle SIVsab GFP reporter by TRIM5α v1-loop variants in CRFK cells. Human variants: read share among cells still uninfected after two challenges over input, higher = gained restriction. Rhesus variants: share among infected cells over input, higher = lost restriction. Reporter dose not given per row. No active / inactive call per row; the paper calls a change when both replicates lie above its controls (mean + 2 SD of stop or wild-type variants, or the top frameshift score). Residues outside the varied loop are taken from Swiss-Prot. The paper reads the human single-substitution scores as noise; they and the rhesus combinations repeat poorly (rank correlation 0.3 to 0.4), indel scores repeat only for the top variants, rhesus substitutions well (0.9).

This series relates to SIVsab (simian immunodeficiency virus of sabaeus monkeys), single-cycle GFP reporter, in CRFK cells. Briefly: enrichment among uninfected cells over input (fold); higher = stronger restriction. The following applies: library: insertions and deletions. On the procedure: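 Pools of CRFK cells expressing variants of the TRIM5α v1 loop were challenged with the single-cycle reporter, sorted by GFP and sequenced; mean of two replicates.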
The sequence “MASGILVNVKEEVTCPICLELLTQPLSLDCGHSFCQACLTANHKKSMLDKGESSCPVCRISYQPENIRPNRHVANIVEKLREVKLSPEGQKVDHCARHGEKLLLFCQEDGKVICWLCERSQEHRGHHTFLTEEVAREYQVKLQAALEMLRQKQQEAEELEADIREEKASWKTQIQYDKTNVLADFEQLRDILDWEESNELQNLEKEEEDILKSLTNSETEMVQQTQSLRELISDLEHRLQGSVMELLQGVDGVIKRTENVTLKKPETFPKNQRRVFRAPDLKGMLEVFRELTDVRRYWVDVTVAPNNISCAVISEDKRQVSSPKPQIIYGARGTRYQCTGILGSQSITSGKHYWEVDVSKKTAWILGVCAGFQPDAMCNIEKNENYQPKYGYWVIGLEEGVKCSAFQDSSFHTPSVPFIVPLSVIICPDRVGVFLDYEACTVSFFNITNHGFLIYKFSHCSFSQPVFPYLNPRKCGVPMTLCSPSS [human TRIM5α, 7-codon deletion at 338]” displayed an enrichment of 1.42 ± 0.95.
To “MASGILVNVKEEVTCPICLELLTQPLSLDCGHSFCQACLTANHKKSMLDKGESSCPVCRISYQPENIRPNRHVANIVEKLREVKLSPEGQKVDHCARHGEKLLLFCQEDGKVICWLCERSQEHRGHHTFLTEEVAREYQVKLQAALEMLRQKQQEAEELEADIREEKASWKTQIQYDKTNVLADFEQLRDILDWEESNELQNLEKEEEDILKSLTNSETEMVQQTQSLRELISDLEHRLQGSVMELLQGVDGVIKRTENVTLKKPETFPKNQRRVFRAPDLKGMLEVFRELTDVRRYWVDVTVAPNNISCAVISEDKRQVSSPKPQIIYGARGTRYQFNYCTGILGSQSITSGKHYWEVDVSKKTAWILGVCAGFQPDAMCNIEKNENYQPKYGYWVIGLEEGVKCSAFQDSSFHTPSVPFIVPLSVIICPDRVGVFLDYEACTVSFFNITNHGFLIYKFSHCSFSQPVFPYLNPRKCGVPMTLCSPSS [human TRIM5α, 4-codon deletion at 338]” belongs 0.943 ± 0.98; to “MASGILVNVKEEVTCPICLELLTQPLSLDCGHSFCQACLTANHKKSMLDKGESSCPVCRISYQPENIRPNRHVANIVEKLREVKLSPEGQKVDHCARHGEKLLLFCQEDGKVICWLCERSQEHRGHHTFLTEEVAREYQVKLQAALEMLRQKQQEAEELEADIREEKASWKTQIQYDKTNVLADFEQLRDILDWEESNELQNLEKEEEDILKSLTNSETEMVQQTQSLRELISDLEHRLQGSVMELLQGVDGVIKRTENVTLKKPETFPKNQRRVFRAPDLKGMLEVFRELTDVRRYWVDVTVAPNNISCAVISEDKRQVSSPKPQIIYGARGTRYQFVNFNYCTGILGSQSITSGKHYWEVDVSKKTAWILGVCAGFQPDAMCNIEKNENYQPKYGYWVIGLEEGVKCSAFQDSSFHTPSVPFIVPLSVIICPDRVGVFLDYEACTVSFFNITNHGFLIYKFSHCSFSQPVFPYLNPRKCGVPMTLCSPSS [human TRIM5α, 1-codon deletion at 338]”, 0.306 ± 0.11.
Turning to “MASGILVNVKEEVTCPICLELLTQPLSLDCGHSFCQACLTANHKKSMLDKGESSCPVCRISYQPENIRPNRHVANIVEKLREVKLSPEGQKVDHCARHGEKLLLFCQEDGKVICWLCERSQEHRGHHTFLTEEVAREYQVKLQAALEMLRQKQQEAEELEADIREEKASWKTQIQYDKTNVLADFEQLRDILDWEESNELQNLEKEEEDILKSLTNSETEMVQQTQSLRELISDLEHRLQGSVMELLQGVDGVIKRTENVTLKKPETFPKNQRRVFRAPDLKGMLEVFRELTDVRRYWVDVTVAPNNISCAVISEDKRQVSSPKPQIIYGARGTRYQGARGTRYQTFVNFNYCTGILGSQSITSGKHYWEVDVSKKTAWILGVCAGFQPDAMCNIEKNENYQPKYGYWVIGLEEGVKCSAFQDSSFHTPSVPFIVPLSVIICPDRVGVFLDYEACTVSFFNITNHGFLIYKFSHCSFSQPVFPYLNPRKCGVPMTLCSPSS [human TRIM5α, 8-codon duplication at 330]”, the enrichment was determined as 0.796 ± 0.65.
To “MASGILVNVKEEVTCPICLELLTQPLSLDCGHSFCQACLTANHKKSMLDKGESSCPVCRISYQPENIRPNRHVANIVEKLREVKLSPEGQKVDHCARHGEKLLLFCQEDGKVICWLCERSQEHRGHHTFLTEEVAREYQVKLQAALEMLRQKQQEAEELEADIREEKASWKTQIQYDKTNVLADFEQLRDILDWEESNELQNLEKEEEDILKSLTNSETEMVQQTQSLRELISDLEHRLQGSVMELLQGVDGVIKRTENVTLKKPETFPKNQRRVFRAPDLKGMLEVFRELTDVRRYWVDVTVAPNNISCAVISEDKRQVSSPKPQIIYGARGTRYQGILGSQSITSGKHYWEVDVSKKTAWILGVCAGFQPDAMCNIEKNENYQPKYGYWVIGLEEGVKCSAFQDSSFHTPSVPFIVPLSVIICPDRVGVFLDYEACTVSFFNITNHGFLIYKFSHCSFSQPVFPYLNPRKCGVPMTLCSPSS [human TRIM5α, 9-codon deletion at 338]” belongs 2.71 ± 2.8; to “MASGILVNVKEEVTCPICLELLTQPLSLDCGHSFCQACLTANHKKSMLDKGESSCPVCRISYQPENIRPNRHVANIVEKLREVKLSPEGQKVDHCARHGEKLLLFCQEDGKVICWLCERSQEHRGHHTFLTEEVAREYQVKLQAALEMLRQKQQEAEELEADIREEKASWKTQIQYDKTNVLADFEQLRDILDWEESNELQNLEKEEEDILKSLTNSETEMVQQTQSLRELISDLEHRLQGSVMELLQGVDGVIKRTENVTLKKPETFPKNQRRVFRAPDLKGMLEVFRELTDVRRYWVDVTVAPNNISCAVISEDKRQVSSPKPQIIYGARGTRYQGTRYQTFVNFNYCTGILGSQSITSGKHYWEVDVSKKTAWILGVCAGFQPDAMCNIEKNENYQPKYGYWVIGLEEGVKCSAFQDSSFHTPSVPFIVPLSVIICPDRVGVFLDYEACTVSFFNITNHGFLIYKFSHCSFSQPVFPYLNPRKCGVPMTLCSPSS [human TRIM5α, 5-codon duplication at 333]”, 0.766 ± 0.044.
In the case of “MASGILVNVKEEVTCPICLELLTQPLSLDCGHSFCQACLTANHKKSMLDKGESSCPVCRISYQPENIRPNRHVANIVEKLREVKLSPEGQKVDHCARHGEKLLLFCQEDGKVICWLCERSQEHRGHHTFLTEEVAREYQVKLQAALEMLRQKQQEAEELEADIREEKASWKTQIQYDKTNVLADFEQLRDILDWEESNELQNLEKEEEDILKSLTNSETEMVQQTQSLRELISDLEHRLQGSVMELLQGVDGVIKRTENVTLKKPETFPKNQRRVFRAPDLKGMLEVFRELTDVRRYWVDVTVAPNNISCAVISEDKRQVSSPKPQIIYGARGTRYQNFNYCTGILGSQSITSGKHYWEVDVSKKTAWILGVCAGFQPDAMCNIEKNENYQPKYGYWVIGLEEGVKCSAFQDSSFHTPSVPFIVPLSVIICPDRVGVFLDYEACTVSFFNITNHGFLIYKFSHCSFSQPVFPYLNPRKCGVPMTLCSPSS [human TRIM5α, 3-codon deletion at 338]” it was 0.536 ± 0.16; in that of “MASGILVNVKEEVTCPICLELLTQPLSLDCGHSFCQACLTANHKKSMLDKGESSCPVCRISYQPENIRPNRHVANIVEKLREVKLSPEGQKVDHCARHGEKLLLFCQEDGKVICWLCERSQEHRGHHTFLTEEVAREYQVKLQAALEMLRQKQQEAEELEADIREEKASWKTQIQYDKTNVLADFEQLRDILDWEESNELQNLEKEEEDILKSLTNSETEMVQQTQSLRELISDLEHRLQGSVMELLQGVDGVIKRTENVTLKKPETFPKNQRRVFRAPDLKGMLEVFRELTDVRRYWVDVTVAPNNISCAVISEDKRQVSSPKPQIIYGARGTRYQNYCTGILGSQSITSGKHYWEVDVSKKTAWILGVCAGFQPDAMCNIEKNENYQPKYGYWVIGLEEGVKCSAFQDSSFHTPSVPFIVPLSVIICPDRVGVFLDYEACTVSFFNITNHGFLIYKFSHCSFSQPVFPYLNPRKCGVPMTLCSPSS [human TRIM5α, 5-codon deletion at 338]”, 0.422 ± 0.16; in that of “MASGILVNVKEEVTCPICLELLTQPLSLDCGHSFCQACLTANHKKSMLDKGESSCPVCRISYQPENIRPNRHVANIVEKLREVKLSPEGQKVDHCARHGEKLLLFCQEDGKVICWLCERSQEHRGHHTFLTEEVAREYQVKLQAALEMLRQKQQEAEELEADIREEKASWKTQIQYDKTNVLADFEQLRDILDWEESNELQNLEKEEEDILKSLTNSETEMVQQTQSLRELISDLEHRLQGSVMELLQGVDGVIKRTENVTLKKPETFPKNQRRVFRAPDLKGMLEVFRELTDVRRYWVDVTVAPNNISCAVISEDKRQVSSPKPQIIYGARGTRYQQTFVNFNYCTGILGSQSITSGKHYWEVDVSKKTAWILGVCAGFQPDAMCNIEKNENYQPKYGYWVIGLEEGVKCSAFQDSSFHTPSVPFIVPLSVIICPDRVGVFLDYEACTVSFFNITNHGFLIYKFSHCSFSQPVFPYLNPRKCGVPMTLCSPSS [human TRIM5α, 1-codon duplication at 337]”, 0.302 ± 0.088.
In turn, “MASGILVNVKEEVTCPICLELLTQPLSLDCGHSFCQACLTANHKKSMLDKGESSCPVCRISYQPENIRPNRHVANIVEKLREVKLSPEGQKVDHCARHGEKLLLFCQEDGKVICWLCERSQEHRGHHTFLTEEVAREYQVKLQAALEMLRQKQQEAEELEADIREEKASWKTQIQYDKTNVLADFEQLRDILDWEESNELQNLEKEEEDILKSLTNSETEMVQQTQSLRELISDLEHRLQGSVMELLQGVDGVIKRTENVTLKKPETFPKNQRRVFRAPDLKGMLEVFRELTDVRRYWVDVTVAPNNISCAVISEDKRQVSSPKPQIIYGARGTRYQRGTRYQTFVNFNYCTGILGSQSITSGKHYWEVDVSKKTAWILGVCAGFQPDAMCNIEKNENYQPKYGYWVIGLEEGVKCSAFQDSSFHTPSVPFIVPLSVIICPDRVGVFLDYEACTVSFFNITNHGFLIYKFSHCSFSQPVFPYLNPRKCGVPMTLCSPSS [human TRIM5α, 6-codon duplication at 332]” had an enrichment of 0.155 ± 0.035.
To “MASGILVNVKEEVTCPICLELLTQPLSLDCGHSFCQACLTANHKKSMLDKGESSCPVCRISYQPENIRPNRHVANIVEKLREVKLSPEGQKVDHCARHGEKLLLFCQEDGKVICWLCERSQEHRGHHTFLTEEVAREYQVKLQAALEMLRQKQQEAEELEADIREEKASWKTQIQYDKTNVLADFEQLRDILDWEESNELQNLEKEEEDILKSLTNSETEMVQQTQSLRELISDLEHRLQGSVMELLQGVDGVIKRTENVTLKKPETFPKNQRRVFRAPDLKGMLEVFRELTDVRRYWVDVTVAPNNISCAVISEDKRQVSSPKPQIIYGARGTRYQRYQTFVNFNYCTGILGSQSITSGKHYWEVDVSKKTAWILGVCAGFQPDAMCNIEKNENYQPKYGYWVIGLEEGVKCSAFQDSSFHTPSVPFIVPLSVIICPDRVGVFLDYEACTVSFFNITNHGFLIYKFSHCSFSQPVFPYLNPRKCGVPMTLCSPSS [human TRIM5α, 3-codon duplication at 335]” belongs 0.726 ± 0.059; to “MASGILVNVKEEVTCPICLELLTQPLSLDCGHSFCQACLTANHKKSMLDKGESSCPVCRISYQPENIRPNRHVANIVEKLREVKLSPEGQKVDHCARHGEKLLLFCQEDGKVICWLCERSQEHRGHHTFLTEEVAREYQVKLQAALEMLRQKQQEAEELEADIREEKASWKTQIQYDKTNVLADFEQLRDILDWEESNELQNLEKEEEDILKSLTNSETEMVQQTQSLRELISDLEHRLQGSVMELLQGVDGVIKRTENVTLKKPETFPKNQRRVFRAPDLKGMLEVFRELTDVRRYWVDVTVAPNNISCAVISEDKRQVSSPKPQIIYGARGTRYQTARGTRYQTFVNFNYCTGILGSQSITSGKHYWEVDVSKKTAWILGVCAGFQPDAMCNIEKNENYQPKYGYWVIGLEEGVKCSAFQDSSFHTPSVPFIVPLSVIICPDRVGVFLDYEACTVSFFNITNHGFLIYKFSHCSFSQPVFPYLNPRKCGVPMTLCSPSS [human TRIM5α, 8-codon duplication at 331]”, 0.436 ± 0.064.
